The results in this text go back to PubChem BioAssay AID1240 (Sanford-Burnham Center for Chemical Genomics, 2008).

SMILES strings stand for the structures. Screen size: about 50,000 compounds; about 800 (1.6%) showed an effect of 50% or more. The list shows a part of the results.

The experiment concerns the target Bcl-2-like protein 10 (Homo sapiens) (UniProt Q9HD36). As to the kind of experiment: TR3 peptide-Bcl-B binding displacers, biochemical primary FP assay, phenotype converters (AID 1240).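 Note: 0% = Bcl-B with tracer peptide and DMSO and 100% = tracer peptide lacking Bcl-B.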 The conditions noted are these: GST-Bcl-B / FITC-TR3 peptide fluorescence polarization; stronger effect = higher value; compound at 3.75 mg/L. On the technique in general: Polarisation of emitted light reports the rotation of a fluorescent probe.
UniProt Q9HD36, sequence (Q9HD36 whole entry, looked up): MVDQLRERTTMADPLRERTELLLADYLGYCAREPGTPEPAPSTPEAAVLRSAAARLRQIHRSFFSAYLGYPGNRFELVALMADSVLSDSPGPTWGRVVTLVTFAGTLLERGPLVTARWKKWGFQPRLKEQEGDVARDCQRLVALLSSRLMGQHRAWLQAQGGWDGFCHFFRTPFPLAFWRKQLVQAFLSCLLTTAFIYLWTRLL
For the molecule `Cc1cc(Br)c2[nH]c(O)c(N=Nc3cccc4cccnc34)c2c1`, the displacement was determined as 42.5%. In the case of `CS(=O)(=O)N(CC(=O)Nc1ccccc1Cl)c1ccc(Oc2ccccc2)cc1`, the displacement was -4.3%.

`O=C(CN1C(=O)/C(=C\c2ccccc2F)SC1=S)Nc1ccc(C(=O)O)cc1`: the displacement is -3.8%.

Regarding `CCOC(=O)C1=C(C)N=c2s/c(=C\c3cccs3)c(=O)n2C1c1ccc(F)cc1` (stereo not given), the displacement stood at 10.2%. `COC(=O)C1CC(OCc2ccccc2)C1` (stereo not given): the displacement amounted to 13.9%. For the molecule `O=C(O)c1cc(NC(=O)c2ccccc2Cl)cc(C(=O)O)c1`, the displacement was -10.9%. Regarding `COc1cccc(C(=O)N2N=C(c3cccc(Br)c3)CC2(O)C(F)(F)F)c1` (stereo not given), the displacement is 4%. The same measure for `O=C(NC(=S)Nc1ccc([N+](=O)[O-])cc1O)c1ccccc1`: 3.9%; for `COc1ccc2ccccc2c1C1NC(=S)NC(C)=C1C(=O)Nc1cc(Cl)ccc1C` (stereo not given): 10.4%; for `O=C(CN1CCCC1)N1CCN(C(=O)c2ccccc2)C1`: -4.6%. `Cc1ccc(C(=O)NC(NC(=S)Nc2cc(C)ccc2C)C(Cl)(Cl)Cl)cc1` (stereo not given): the displacement was found to be 11.4%. Under `COc1cc(CN2CCN(Cc3ccccn3)CC2)cc(OC)c1O` stands 0%; under `CCOc1ccc(C(NC(C)=O)c2ccc(OC)c(OC)c2)cc1` (stereo not given), -1.3%. Regarding `COc1ccc(/C=c2\oc3cccc4c(OC)ccc(c2=O)c34)cc1OC`, the displacement is -6.1%. As for `CCOC(=O)C1=C(C)N=c2s/c(=C\c3ccc(C)cc3)c(=O)n2C1c1cccc([N+](=O)[O-])c1` (stereo not given), the displacement was found to be 127%. With `CCCC(=O)Nc1cccc(-c2nc3ccccc3s2)c1C`, the displacement worked out at 3.4%. `COc1ccccc1N1CCN(/N=C\c2cccs2)CC1`: the displacement was 2.5%. `O=C(COc1ccc(Cl)cc1)Nc1ccc(-c2nc3ccccc3o2)c(O)c1`: the displacement was found to be 11%. Turning to `CCn1c(O)c(C=Nc2ccccc2)sc1=S`, the displacement turned out to be 1.9%.

For `O=Cc1cn(CCOc2ccccc2)c2ccccc12`, the displacement was determined as 6.8%. As for `C=CCN1C(=O)/C(=C2\SC(=S)N(Cc3ccco3)C2=O)c2ccccc21`, the displacement came to 10.2%. The same measure for `COc1ccc(N2C(=O)CC(NC3CCCCC3)C2=O)cc1` (stereo not given): -14.1%; for `CC1CCN(S(=O)(=O)c2cc(Cl)ccc2Cl)CC1`: 0%.

Take `CCOC(=O)C1=C(c2ccccc2)N=c2s/c(=C\c3ccc(OCC(N)=O)cc3)c(=O)n2C1c1cc(OC)ccc1OC` (stereo not given): the displacement came out at 0.2%. With `c1n[nH]c(SCc2ccc(CSc3ncn[nH]3)cc2)n1`, the displacement was 3.4%. Consider `CCC(=O)N(CCc1ccc(OC)cc1)C1CC(=O)N(c2ccc(Br)cc2)C1=O` (stereo not given), for which the displacement was -2.6%. The same measure for `O=C(c1ccccc1)N1N=C(C(F)(F)F)CC1(O)c1ccccc1` (stereo not given): 2.7%; for `CCOc1ccccc1N1C(=O)C2C3C=CC(C4CC34)C2C1=O` (stereo not given): -5%. In the case of `Cc1ccc(S(=O)(=O)N/N=C/c2cccc(OS(=O)(=O)c3cccc([N+](=O)[O-])c3)c2)cc1`, the displacement is -39.1%. Take `COC(=O)c1ccc(COc2cc3oc(=O)c4c(c3cc2Cl)CCCC4)cc1`: the displacement was -7.1%. On to `COc1ccccc1NC(=O)C1=C(C)NC2=C(C(=O)CC(C)(C)C2)C1c1ccc2c(c1)OCO2` (stereo not given), for which the displacement was found to be 10%.

`CCOC(=O)Nc1sc2c(c1C(=O)OCC)CCC(CC)C2` (stereo not given): the displacement came to 15.9%. `N#CCSc1nc(N)c(C#N)cc1C#N`: the displacement amounted to 1.4%.

For the molecule `O=C(NCc1ccco1)C(=O)Nc1ccc(Cl)c(C(F)(F)F)c1`, the displacement was -4.6%. Under `O=C(N/N=C/C1CC=CCC1)c1ccc([N+](=O)[O-])cc1Cl` (stereo not given) stands 7.9%. The same measure for `CC(C(=O)Nc1ccc(-c2nc3ccccc3s2)c(O)c1)(c1ccccc1)c1ccccc1`: 3.9%. For `O=[N+]([O-])c1cc(/C=N/N2CCN(Cc3ccc(Cl)cc3)CC2)ccc1Cl`, the displacement worked out at 9.1%. For `c1ccc(CCCN2CCN(Cc3cccnc3)CC2)cc1`, the displacement worked out at 3%. In the case of `CCCC(=O)C1=C(SCC)CC(C)(C)CC1=O`, the displacement was -3.5%. In the case of `COc1cc(C2Nc3ccccc3C(=O)N2Cc2ccco2)cc(OC)c1OC` (stereo not given), the displacement came out at 12.9%.

On to `O=C(NCCc1ccc(Cl)cc1)C(=O)Nc1ccccc1`, for which the displacement turned out to be 10.5%. The same measure for `COc1ccc(C(=O)/C=C(\C)c2ccc(OC)cc2)cc1`: 0.3%; for `NC(=O)NC(c1ccc(Cl)cc1)c1ccc(Cl)cc1`: 2.4%.

In the case of `CC1=NN(c2ccc(S(N)(=O)=O)cc2)C(=O)/C1=C\c1ccc(C)cc1`, the displacement is -2.3%.

As to `Cc1ccc(/C(O)=C2\C(=O)C(=O)N(c3ccc(O)cc3)C2c2cccc(F)c2)cc1` (stereo not given), the displacement was -10.2%. The same measure for `c1ccc2cc(CN3CCN(Cc4c[nH]c5ccccc45)CC3)ccc2c1`: 10%; for `COC(=O)/C(=C\C=C\N(C)c1ccccc1)C(C)=O`: 1.8%. Take `COc1ccc(NC(=O)COc2ccc(Cl)cc2C)cc1`: the displacement amounted to 1.5%. Turning to `CC1=C(C(=O)OCc2ccccc2)C(c2ccc(C(F)(F)F)cc2)CC(=O)N1` (stereo not given), the displacement is -5.8%. Under `CC1=NNC(=O)C1CC(=O)N/N=C/c1cccc(O)c1` (stereo not given) stands -3.9%. Consider `Cc1ccc(CC2C(=O)N(c3ccc(Cl)c(Cl)c3)C(=O)C2C)cc1` (stereo not given), for which the displacement was found to be 0.6%. As to `O=C(/C=C/c1ccc2c(c1)OCCO2)c1c(-c2ccccc2)c2cc(Br)ccc2[nH]c1=O`, the displacement was -15.3%. Regarding `CN(c1ccc(C(=O)Nc2cc(Cl)cc(Cl)c2)cc1)S(=O)(=O)c1ccccc1`, the displacement is -14.6%. As for `Cc1cc(NC(=O)c2cccc(OC(C)C)c2)no1`, the displacement was 2.1%. `CCOC(=O)C1=C(C)NC2=C(C(=O)CC(C)(C)C2)C1c1ccc(N2CCOCC2)cc1` (stereo not given): the displacement turned out to be 8.7%.

Regarding `Cc1ccc(OCC(=O)Nc2ccc3c(c2)OCO3)c(C)c1`, the displacement is -2.3%. On to `CN1CCCc2c1nc1c(c2N)CCCC1`, for which the displacement was -16.9%.

For the molecule `Cc1cccc(OCC(=O)N2CCN(c3ccccn3)CC2)c1`, the displacement is 8.7%. Consider `Cc1ccc(OCC(=O)Nc2ccccc2C#N)c(C)c1`, for which the displacement was -12.1%. For the molecule `CCc1nn(-c2ccccc2)c(N)c1-c1ccc(OC)c(OC)c1`, the displacement was -1.4%. In the case of `O=C1NC(=O)C(=Cc2cc(Br)ccc2OCc2cccc3ccccc23)C(=O)N1`, the displacement came to 13.9%.

For the molecule `O=C(O)/C(=C\c1ccccc1)NC(=O)c1ccccc1`, the displacement amounted to 12.8%. The same measure for `c1ccc2c(c1)CC1(CCCC1)n1nnnc1-2`: 3%.

Consider `CCN(CC)c1ccc(Nc2cc(C)nc3ncnn23)cc1`, for which the displacement is -8.7%.

As to `C=C(C)COc1cc2oc(=O)cc(C)c2cc1Cl`, the displacement amounted to 1.2%. Regarding `Cc1ccc(C(C)C)c(OCCNC(=O)Cc2cccc3ccccc23)c1`, the displacement came to 9.6%. As to `O=C(CN1C(=O)CCC1=O)Nc1cccc2ccccc12`, the displacement is -5.4%. Under `O=C(Nc1ccc(F)c(Cl)c1)C1CC2CCC1C2` (stereo not given) stands 16.5%. For `O=C(O)C1CCCCN1Cc1ccccc1` (stereo not given), the displacement is -3.4%. For the molecule `Cc1ccccc1C(=O)Nc1sc2c(c1C(N)=O)CCCCC2`, the displacement is 0.6%. `COc1cc(C(N)=O)cc(OC)c1OC`: the displacement is 18.6%. Consider `CCC1=NN(C(=O)COc2ccccc2)C(O)(c2ccncc2)C1` (stereo not given), for which the displacement is -9%.

For `CCOc1ccc(NC2(c3ccccc3)C(=O)c3ccccc3C2=O)cc1`, the displacement came to 16.4%. Under `O=C(c1ccc(Br)cc1)N1CCN(c2ccc(Cl)cc2[N+](=O)[O-])CC1` stands 10.9%; under `COc1cc(/C=N/Nc2nc(N3CCCCC3)nc(N3CCCCC3)n2)cc(Br)c1O`, -7.2%. For the molecule `Cc1cccc(NC(=O)/C(=C/c2ccc(C)o2)NC(=O)c2ccccc2)c1`, the displacement worked out at 12.5%. The same measure for `O=C(NCc1ccco1)/C(=C/c1ccc(F)cc1)NC(=O)c1ccccc1Cl`: -15%; for `O=C(COc1ccccc1)Nc1ccccc1CO`: 10.8%. For the molecule `CC(C)C(=O)Nc1ccc2oc(-c3ccc(C(C)(C)C)cc3)nc2c1`, the displacement came out at 4.2%. Turning to `CCc1ccc(NC(=O)C(=O)NCC2CCCO2)cc1` (stereo not given), the displacement came out at 12.1%. Under `COc1ccc(OCC(=O)N2CCN(c3ccc([N+](=O)[O-])cc3)CC2)cc1` stands 0.3%; under `Cc1ccc(NCC(=O)N/N=C\c2cccc(OC(=O)c3ccccc3)c2)cc1`, 3.6%. Take `COc1ccc(-c2nc3ccccc3nc2N2CCCCC2)cc1`: the displacement was -4.8%. Regarding `O=C(O)CN1C(=O)/C(=C\c2ccc(OCc3ccccc3)cc2)SC1=S`, the displacement turned out to be 9.6%. On to `CCOC(=O)COc1ccc(/C=C2\C(=O)NC(=O)N(C)C2=O)cc1OC`, for which the displacement came out at 8.5%. Take `O=C(Nc1ccc2nc(-c3ccc(O)cc3)sc2c1)C1CCCCC1`: the displacement is 5%. With `COC(=O)c1cc(NC(=O)Cc2ccccc2)cc(C(=O)OC)c1`, the displacement was -4%.

Consider `CCc1ccccc1N(CC(=O)Nc1ccc(Br)cc1)S(C)(=O)=O`, for which the displacement turned out to be 3.9%.

Consider `CCOc1cc(/C=C2\SC(=Nc3cccc(Cl)c3C)NC2=O)ccc1O`, for which the displacement is -11.7%.

With `COc1ccc(C(=O)Nc2nc(-c3ccc(S(=O)(=O)N4CCOCC4)cc3)cs2)cc1`, the displacement stood at 4.9%. With `O=C1C2C(c3ccccc3)C=CC(c3ccccc3)C2C(=O)N1Cc1ccc(F)cc1` (stereo not given), the displacement was -7.7%. For `Cc1cccc(NCN2C(=O)S/C(=C/c3ccccc3Cl)C2=O)c1`, the displacement was 9.1%. In the case of `O=C1CC(N2CCC(Cc3ccccc3)CC2)C(=O)N1Cc1ccc(Cl)cc1` (stereo not given), the displacement is -5.8%.

For `Cc1nnc(N(CCC(N)=O)CCC(N)=O)s1`, the displacement was determined as 9.6%. With `Cc1c(NC(=O)Cn2cnc3c2c(=O)n(C)c(=O)n3C)cccc1[N+](=O)[O-]`, the displacement amounted to 15.9%. For the molecule `COc1cc(C(=O)N2CCN(S(=O)(=O)c3ccccc3)CC2)cc(OC)c1OC`, the displacement is -7.7%. As for `CCOC(=O)C1=C(O)/C(=C/c2ccc(OC)cc2)SC1=Nc1cccc2ccccc12`, the displacement came to 9.3%.

For `CCCN1CCC(=NNC(=O)c2cccc([N+](=O)[O-])c2)CC1`, the displacement was determined as 11.8%. The same measure for `O=C(Nc1ccc(F)c(Cl)c1)c1cc2n(n1)C(C(F)(F)F)CC(c1cccs1)N2` (stereo not given): -0.7%; for `Cc1nc2cc(-c3ccccc3)sc2c(=O)n1N`: -3.5%. Regarding `Cc1ccccc1C(=O)Nc1ccc(Cl)c(C(N)=O)c1`, the displacement is -27.4%.

For the molecule `COc1cc(CN2CCN(C3CCC(c4ccccc4)CC3)CC2)cc(OC)c1OC` (stereo not given), the displacement was 5.6%. Take `CCCC(=O)c1c(NCc2ccccc2)cc(C)oc1=O`: the displacement is -7.3%. For the molecule `COc1cc(NC(=O)c2ccc(F)cc2)cc(OC)c1`, the displacement is -9.2%.

`Cc1cccc(C(=O)Nc2cc(Cl)cc(Cl)c2)c1`: the displacement is 26.9%. In the case of `Cc1ccc([N+](=O)[O-])cc1NC(=O)c1cc2ccccc2cc1O`, the displacement was -2.9%.

In the case of `COc1ccccc1OCCCOc1cccc2ccccc12`, the displacement amounted to 3%. With `CCC(NS(=O)(=O)c1ccc2c(c1)Cc1cc(S(=O)(=O)NC(CC)C(=O)O)ccc1-2)C(=O)O` (stereo not given), the displacement was determined as 7.3%. With `CC1=C(C(=O)OC(C)C)C(c2ccccc2)N2C(=O)CCSC2=N1` (stereo not given), the displacement was determined as 61.6%. For `O=[N+]([O-])c1cc(-n2cnnn2)ccc1Sc1nnnn1-c1ccccc1`, the displacement is 1.2%.
